Test results taken from ChEMBL document CHEMBL4888484, “Replenishing the malaria drug discovery pipeline: Screening and hit evaluation of the MMV Hit Generation Library 1 (HGL1) against asexual blood stage Plasmodium falciparum ,using a nano luciferase reporter read-out” (2022).
About 540 (0.36%) of roughly 150,000 compounds showed an effect of 50% or more. The list shows a part of the results.

System: Plasmodium falciparum
Assay: Primary screen in NF54 nanoGlo assay, in single point, at 2uM, 72h; a lower Z score goes with more inhibition
Assay type: functional, Erythrocyte
Settings: timepoint 72 hour

Row | Structure (SMILES) | % Inhibition [%] | Z score
1 | CC(C)CS(=O)(=O)CC(=O)N(CCC#N)c1ccccc1 | -13 | 1.4
2 | CC1CCCC(C(=O)N(C)CCC2CCCCC2)C1 (configuration not stated) | 7 | -1.36
3 | CN(C)Cc1cc(CC2(NCc3ccncc3)COC2)no1 | -7 | 0.95
4 | COc1cccc(-c2cn3c(-c4ccccc4)c(-c4ccccc4)nc3n2-c2ccc(O)cc2)c1 | 5 | -0.59
5 | Cn1ccc([C@H]2CCCN(S(=O)(=O)CCC(F)(F)F)C2)n1 | -8 | 0.92
6 | C[C@@H](c1ccccc1F)N1CCC(c2nnc3n2CCC3)CC1 | -1 | 0.12
7 | CCC[C@]1(CO)CCCN(C(=O)c2ccc3[nH]c(CO)nc3c2)C1 | -2 | 0.26
8 | COc1cc2c(-c3ccccc3)c(C)oc2cc1CNc1ccc(F)cc1 | 1 | -0.12
9 | Fc1ccccc1OCCn1nnc([C@@]2(C(F)(F)F)CCCN2)n1 | -1 | 0.1
10 | CC(C)(C)OC(=O)[C@@]12CCC[C@H]1CN(C(=O)c1nccnc1N)C2 | -22 | 3.43
11 | CC(=O)N1C[C@H]2CN(C(=O)Cc3cccs3)CC[C@@]2(c2nc(C)n[nH]2)C1 | -5 | 0.78
12 | O=C(Nc1ccc(Cl)c(OC(F)F)c1)N[C@H]1CC[C@H](O)CC1 | 7 | -0.92
13 | Cc1ccnc(NC2CCCCCC2)n1 | -9 | 1.07
14 | CC(=O)Nc1cc(C)ccc1OC(C)=O | -8 | 1.07
15 | O=C(NCc1cncc(-c2ccoc2)c1)c1ccc(Cl)cc1Cl | 15 | -1.9
16 | Cc1cnn(CCCNC(=O)NCc2sc(C)nc2C)c1 | -1 | 0.11
17 | COCCc1noc(CNC(=O)Nc2cccc3c4c(oc23)CCCC4)n1 | -1 | 0.07
18 | O=C(NCCc1ccccc1)Nc1cnc2ccccn2c1=O | -7 | 1.12
19 | CCC(C)C1NC2(CCN(S(=O)(=O)c3ccc(F)cc3)CC2)N(CCCOC)C1=O (configuration not stated) | -15 | 1.79
20 | CCCCNc1ccc(S(=O)(=O)N2CCOCC2)cc1NCC(=O)Nc1ccc2c(c1)CCC2 | -29 | 3.38
21 | COCCNC(=O)CNC(=O)CN1C(=O)c2ccccc2Oc2ncccc21 | -2 | 0.34

Row | Structure (SMILES) | % Inhibition [%] | Z score
22 | CC(C)Cn1cc(C(=O)N2CCOC[C@@H]2CC(=O)c2ccco2)cn1 | 2 | -0.22
23 | CCc1c(C)nn(CC(=O)N2CCN(c3ccnc4nncn34)CC2)c1C | -2 | 0.31
24 | COc1ccc(S(=O)(=O)N2C[C@H]3CN(C(=O)Nc4ccccc4C)C[C@@H](C2)O3)cc1 | -6 | 0.52
25 | Cc1ccc(OCC[C@H]2CCN(C(=O)CC(F)(F)F)C2)cc1 | -5 | 1.03
26 | O=C(NCCCc1cnoc1)c1ccoc1 | -8 | 1.2
27 | CCN1CCO[C@H](C(=O)N[C@H]2CC[C@H](NC(=O)C3(C)CCCCC3)CC2)C1 | -12 | 2.35
28 | COc1ccccc1OC1(C(=O)O)CCN(c2ncnc3[nH]ccc23)CC1 | 4 | -0.58
29 | Cc1cc(N(C)C)nc(NC(=O)N[C@@H]2C=C[C@H](CO)C2)n1 | -10 | 0.98
30 | CCN(CC(=O)NCC(=O)OC)c1ccccc1Cl | 0 | 0.04
31 | C=CCc1ccccc1O[C@@H](C)/C(N)=N/O | 4 | -0.64
32 | O=C(c1cc(C(F)(F)F)n[nH]1)N1CC2(CCCO2)C1C1CC1 (configuration not stated) | 1 | -0.22
33 | COC(=O)[C@]1(C)CN(C(=O)C(C)(O)C(C)C)C[C@H]1C (some centres not stated) | 4 | -0.63
34 | CCOc1ncccc1CNC(=O)[C@H]1CCCN(C(=O)c2cccs2)C1 | -4 | 0.65
35 | O[C@@H](CNCc1ccccc1)c1cccs1 | -5 | 0.47
36 | CN1CCC[C@H]1c1nc(C2CN(C(=O)CCCc3ccccc3)C2)no1 | 1 | -0.12
37 | CCCCOCC(=O)N1CCC2(CCC(=O)N(Cc3cccnc3)C2)CC1 | 3 | -0.3
38 | CCc1nc2cc(-c3noc(-c4ccc5cc[nH]c5c4)n3)ccc2o1 | 2 | -0.18
39 | CNC(=O)[C@@H](NC(=O)N1CCOC[C@@H]1CC(C)C)C(C)C | -8 | 1.28
40 | CCOC1CC1C(=O)NS(=O)(=O)c1cccnc1 (configuration not stated) | 1 | -0.25
41 | O=S(=O)(Cc1noc(-c2ccsc2)n1)c1cccc(Cl)c1 | -6 | 1.1
